Out of some 52,000 compounds screened, about 4,300 (8.3%) were called active. Rule as the data show it: active = survival mostly below about 52% (no sharp cut-off); inactive = mostly above about 56%. This is one part of the list.
tested on: DeltatarO mutant; assay: S. aureus survival, RN4220 and DeltatarO strains – OD600, teichoic acid synthesis inhibitors, primary screen (AID 463173); conditions: S. aureus RN4220 wild type/DeltatarO growth, OD600, 18 h, hits give low values, screened at 18.75 µg/mL (by protocol)

Structure (SMILES) | survival
C=CCN1C(=O)C(CC(=O)NCC)SC1=Nc1ccc(S(N)(=O)=O)cc1 (stereo not given) | inactive: 85%
O=C(Cn1nc(-c2ccc(Cl)cc2)c2ccccc2c1=O)NCCN1CCOCC1 | inactive: 97%
Cc1ccc(CNC(=O)CN2C(=O)COc3ccccc32)cc1 | inactive: 94%
Cc1ccc(C(=O)c2cn(Cc3c(F)cccc3Cl)c3nc(C)ccc3c2=O)cc1 | inactive: 62%
COC(=O)C1C(c2ccccc2)C(C(=O)N2CCN(C)CC2)C1c1ccccc1 (stereo not given) | inactive: 80%
Cc1cccc(C)c1NC(=O)Cn1cc(S(=O)(=O)Cc2ccc(F)cc2)c2ccccc21 | inactive: 78%
CCOC(=O)c1cc(-c2ccc(C)cc2)n(CCC(=O)Nc2cc(Cl)ccc2C)c1C | inactive: 85%
CCOc1ccc(CCNC(=O)c2cc(Nc3ccc(C)cc3C)nc3ccccc23)cc1OCC | inactive: 123%
CC(=O)c1cc(-c2ccccc2)n(CCC(=O)Nc2nc3c(C)cccc3s2)c1C | inactive: 71%
O=C(CSc1nccc(=O)[nH]1)Nc1ccc(Cl)cc1 | inactive: 79%
CC1CCN(S(=O)(=O)c2ccc3[nH]cc(C(=O)NCc4ccc(F)cc4)c(=O)c3c2)CC1 | inactive: 81%
Cc1noc(-c2ccc(-c3noc(-c4ccccc4)n3)cc2)n1 | active: -4%
CCc1ccc(C2CC(=O)c3c([nH]c(C(=O)OCc4ccc(C)cc4)c3C)C2)cc1 (stereo not given) | inactive: 93%
CCC(C(=O)NCc1ccc2c(c1)CCN2C(=O)c1ccc(F)cc1)c1ccccc1 (stereo not given) | inactive: 80%
CCc1nc2ccc(C(=O)NCCc3ccc(OC)cc3OC)cc2nc1CC | inactive: 68%
O=C(NCCc1ccc(Cl)cc1)c1ccc(CS(=O)(=O)Cc2ccc(Cl)cc2)o1 | inactive: 62%
O=C(Cn1c(=O)n(Cc2ccc(C(=O)NCc3ccc4c(c3)OCO4)cc2)c(=O)c2ccccc21)Nc1cccc(Cl)c1 | inactive: 96%
CC1=C(C(=O)Nc2cccc(C(F)(F)F)c2)C2(CCCCCC2)OC1=O | active: 32%
O=C1Cc2cc(S(=O)(=O)N3CCCCC3)cc3c2N1CCC3 | inactive: 92%
Cc1ccc(N2CC(NC(=O)Cc3ccc(F)cc3)CC2=O)cc1 (stereo not given) | inactive: 89%
Cc1ccc2c(c1)sc1nc(-c3cc4cc(Cl)ccc4oc3=O)cn12 | inactive: 66%
COc1cc2[nH]c(=O)n(Cc3ccc(C(=O)NCc4ccc(C)cc4)cc3)c(=O)c2cc1OC | inactive: 66%
COc1ccccc1NC(=O)Cn1c(=O)n(-c2cccc(Cl)c2)c(=O)c2sc3ccccc3c21 | inactive: 103%
CC1=C(C(=O)Nc2ccccc2)C(c2cccs2)n2nc(SCc3ccccc3)nc2N1 (stereo not given) | inactive: 68%
O=C(Nc1c2c(nn1-c1ccc(Cl)cc1)CS(=O)(=O)C2)c1cccc(Cl)c1 | inactive: 71%
CC(=O)N1c2ccc(S(=O)(=O)NCCC(=O)Nc3ccc(C)cc3Br)cc2CC1C (stereo not given) | inactive: 59%
O=C(CSc1ccc2nnc(CCNS(=O)(=O)c3ccccc3)n2n1)Nc1ccccc1C(F)(F)F | inactive: 114%
Cc1ccc(CNC(=O)Cn2ccn(-c3cc(C)cc(C)c3)c(=O)c2=O)cc1 | inactive: 84%

Structure (SMILES) | survival
COc1ccccc1NC(=O)Cn1nc(C)n2cccc2c1=O | inactive: 89%
COc1ccc(OC)c(NC(=O)c2cc3cc4ccc(C)cc4nc3s2)c1 | inactive: 77%
CCOc1ccccc1CN1CCc2nc(Nc3ccccc3)ncc2C1 | inactive: 71%
Fc1ccccc1C1=NC(c2ccc(C(F)(F)F)cc2)=Nc2ccccc2N1 | inactive: 74%
COc1cc(CN2CCN(S(=O)(=O)c3ccc(F)cc3)CC2)cc(OC)c1OC | inactive: 70%
O=C(NCc1ccccn1)c1nn(-c2ccccc2F)nc1CO | inactive: 96%
COc1ccc(CCN2C(=O)CN(C3CCCCCC3)C(=O)C2c2ccc(C)cc2)cc1OC (stereo not given) | inactive: 92%
COC(=O)c1cc(OC)c(OC)cc1NC(=O)c1ccc2c(c1)CCN2S(=O)(=O)c1ccccc1 | inactive: 66%
Fc1ccc(-n2ncc3c(N4CCN(Cc5ccccc5)CC4)ncnc32)cc1 | inactive: 91%
CCc1ccc(CNC(=O)c2ccc3c(c2)nc2n3CCCCC2)cc1 | inactive: 79%
COc1ccc(OC)c(CCNC(=O)CN2C(=O)COc3ccc(S(=O)(=O)N4CCCCCC4)cc32)c1 | inactive: 66%
Cc1ccc(C)c(Cn2cnc3ccccc3c2=O)c1 | inactive: 38%
COc1cccc(N=c2oc3cc(O)ccc3cc2C(=O)NCC2CCCO2)c1 (stereo not given) | inactive: 95%
COc1cccc(CNC(=O)CCNS(=O)(=O)c2ccc3c(c2)CCCC(=O)N3)c1 | inactive: 54%
CCCCN(CC)Cc1ccc(CNS(=O)(=O)c2cc3c(cc2Cl)NC(=O)CO3)o1 | active: 0%
CCOc1ccc(NC(=O)Cn2c(=O)n(Cc3ccc(C(=O)NCc4ccc5c(c4)OCO5)cc3)c(=O)c3ccccc32)cc1 | inactive: 104%
Cc1cc(C)cc(NC(=O)CSc2nc(-c3ccccc3)nn2C(=O)c2ccco2)c1 | inactive: 110%
CCCCOc1ccc(C(=O)Nc2ccc3c(c2)CCCN3S(=O)(=O)c2ccc(C)cc2)cc1 | inactive: 71%
CCOc1ccc(-c2cc(NC(=O)Nc3ccccc3C(F)(F)F)c(C(=O)OC)s2)cc1 | inactive: 60%
COC(=O)c1ccc(Cn2c(SCC(=O)Nc3ccc(F)cc3)nc3ccccc32)cc1 | inactive: 81%
Cc1ccc(N2CC(C(=O)NCc3nnnn3-c3ccc(C)c(C)c3)CC2=O)cc1 (stereo not given) | inactive: 69%
Cc1cc[n+](CC(=O)N2CCCCC2)cc1 | inactive: 89%
CCc1nnc(NC(=O)CSc2nc3c([nH]c4ccccc43)c(=O)n2-c2ccc(OC)cc2)s1 | inactive: 118%
CC(C)c1ccc(/C=C(\C#N)c2nc(-c3ccc(O)cc3)cs2)cc1 | active: -1%
O=C(C1CCCCC1)N(Cc1cccnc1)c1nc2ccc(F)cc2s1 | inactive: 99%
CCOc1ccc(NC(=O)Cn2c(=O)cc(C)c3c(C)nn(-c4ccc(CC)cc4)c32)cc1 | inactive: 79%
COc1ccc(C(=O)Nc2ccccc2C(=O)OCc2cc(=O)n3nc(C4CC4)sc3n2)cc1 | inactive: 70%

— PubChem BioAssay AID463173 (ICCB-Longwood Screening Facility, Harvard Medical School, 2010)
